Experimental data from US20230235011A1 (BEIJING BEYOND BIOTECHNOLOGY, published 2023).

What was measured:
TGF-β1 = target: T1, TGF-β1 (UniProt P01137 in part, limits assumed); assay: SPR (Biacore T100, 25 C); binder captured on anti-human IgG CM5 chip, TGF-β1 as analyte
T1 construct: Bought antigen, used as the SPR analyte; The printed catalogue number is doubtful

GPC-3 protein = target: T2, GPC-3 protein (UniProt P51654 25-559, limits assumed); assay: SPR (Biacore T100, 25 C); binder captured on anti-human IgG CM5 chip, GPC-3 protein as analyte
Sequence of GPC-3 protein (P51654 25-559 limits assumed): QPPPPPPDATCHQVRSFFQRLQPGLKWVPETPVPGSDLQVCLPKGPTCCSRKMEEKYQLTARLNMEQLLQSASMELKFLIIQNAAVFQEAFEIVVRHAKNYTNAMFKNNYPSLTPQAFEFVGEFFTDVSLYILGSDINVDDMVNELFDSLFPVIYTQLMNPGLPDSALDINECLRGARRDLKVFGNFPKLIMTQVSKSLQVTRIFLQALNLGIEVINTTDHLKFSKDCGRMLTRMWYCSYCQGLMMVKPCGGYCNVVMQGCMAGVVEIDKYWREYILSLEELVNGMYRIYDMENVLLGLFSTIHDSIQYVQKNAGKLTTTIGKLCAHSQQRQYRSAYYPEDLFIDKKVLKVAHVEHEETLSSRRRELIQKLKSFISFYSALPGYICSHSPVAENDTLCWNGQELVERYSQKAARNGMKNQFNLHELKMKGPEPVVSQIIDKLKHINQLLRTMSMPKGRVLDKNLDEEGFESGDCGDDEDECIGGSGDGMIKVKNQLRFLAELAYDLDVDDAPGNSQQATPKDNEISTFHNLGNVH
T2 construct: Bought antigen, used as the SPR analyte; also called Glypican-3

recombinant human PD-L1 = target: T3, recombinant human PD-L1 (human, UniProt Q9NZQ7 in part); assay: ELISA; PD-L1 coated at 100 ng/ml, fusion protein titrated, anti-human IgG Fc-HRP
Sequence of recombinant human PD-L1 (Q9NZQ7 19-238 limits assumed): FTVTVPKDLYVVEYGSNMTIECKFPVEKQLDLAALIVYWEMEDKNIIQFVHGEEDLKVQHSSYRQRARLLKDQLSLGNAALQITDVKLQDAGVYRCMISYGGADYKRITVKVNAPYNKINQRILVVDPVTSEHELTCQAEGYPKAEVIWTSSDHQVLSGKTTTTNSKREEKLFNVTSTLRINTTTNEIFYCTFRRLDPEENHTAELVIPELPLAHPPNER
T3 construct: Bought protein, coated on the ELISA plate; The construct is not described

recombinant human CTLA-4 = target: T4, recombinant human CTLA-4 (human, UniProt P16410 36-162); assay: ELISA; CTLA-4 coated at 100 ng/ml, fusion protein titrated, anti-human IgG Fc-HRP
T4 construct: Bought protein, coated on the ELISA plate; The construct is not described
T4 sequence (looked up): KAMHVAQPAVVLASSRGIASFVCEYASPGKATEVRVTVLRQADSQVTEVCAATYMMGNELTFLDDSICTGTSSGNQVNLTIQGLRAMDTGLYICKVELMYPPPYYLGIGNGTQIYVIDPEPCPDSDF

VEGF165 = target: T5, VEGF165 (UniProt P15692-4 27-191); assay: SPR (Biacore T100, 25 C); binder captured on anti-human IgG CM5 chip, VEGF165 as analyte
T5 construct: Bought antigen, used as the SPR analyte; also called VEGF-A
T5 sequence (looked up): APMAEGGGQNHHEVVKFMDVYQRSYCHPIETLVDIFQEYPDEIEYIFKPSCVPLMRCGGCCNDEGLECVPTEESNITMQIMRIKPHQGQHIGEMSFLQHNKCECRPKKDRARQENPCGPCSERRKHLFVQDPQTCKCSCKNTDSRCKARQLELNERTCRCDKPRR

Sequence of TGF-β1 (P01137 279-390 limits assumed): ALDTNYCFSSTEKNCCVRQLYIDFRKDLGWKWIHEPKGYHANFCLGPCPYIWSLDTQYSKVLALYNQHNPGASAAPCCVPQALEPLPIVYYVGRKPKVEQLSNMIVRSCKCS

B1: conjugate BY41.6 (IgG-like TGF-βRII-CD80 fusion protein) (Fc fusion)
heavy: VTDNNGAVKFPQLCKFCDVRFSTCDNQKSCMSNCSITSICEKPQEVCVAVWRKNDENITLETVCHDPKLPYHDFILEDAASPKCIMKEKKKPGETFFMCSCSSDECNDNIIFSEEYNTSNPGGGGSSASTKGPSVFPLAPCSRSTSESTAALGCLVKDYFPEPVTVSWNSGALTSGVHTFPAVLQSSGLYSLSSVVTVPSSSLGTKTYTCNVDHKPSNTKVDKRV[no letters for human IgG4 Fc with S228P (EU numbers)]GGGGSGGGGSGGGGSVIHVTKEVKEVATLSCGHNVSVEELAQTRIYWQKEKKMVLTMMSGDMNIWPEYKNRTIFDITNNLSIVILALRPSDEGTYECVVLKYEKDAFKREHLAEVTLSVKADFPTPSISDFEIPTSNIRRIICSTSGGFPEPHLSWLENGEELNAINTTVSQDPETELYAVSSKLDFNMTTNHSFMCLIKYGHLRVNQTFNWNTTKQEHFP
light: VTDNNGAVKFPQLCKFCDVRFSTCDNQKSCMSNCSITSICEKPQEVCVAVWRKNDENITLETVCHDPKLPYHDFILEDAASPKCIMKEKKKPGETFFMCSCSSDECNDNIIFSEEYNTSNPGGGGSRTVAAPSVFIFPPSDEQLKSGTASVVCLLNNFYPREAKVQWKVDNALQSGNSQESVTEQDSKDSTYSLSSTLTLSKADYEKHKVYACEVTHQGLSSPVTKSFNRGEC
notes: Fab-like arms carry the TGFβRII ECD in place of VH and VL
Kd (TGF-β1): 7.43 nM
koff (TGF-β1): 0.000665 s⁻¹
kon (TGF-β1): 89500 M⁻¹ s⁻¹

B2: conjugate BY20.3 (codrituzumab-CD80) (other)
heavy: QVQLVQSGAEVKKPGASVKVSCKASGYTFTDYEMHWVRQAPGQGLEWMGALDPKTGDTAYSQKFKGRVTLTADKSTSTAYMELSSLTSEDTAVYYCTRFYSYTYWGQGTLVTVSS[no letters for human IgG1 constant region]GGGGSGGGGSGGGGSVIHVTKEVKEVATLSCGHNVSVEELAQTRIYWQKEKKMVLTMMSGDMNIWPEYKNRTIFDITNNLSIVILALRPSDEGTYECVVLKYEKDAFKREHLAEVTLSVKADFPTPSISDFEIPTSNIRRIICSTSGGFPEPHLSWLENGEELNAINTTVSQDPETELYAVSSKLDFNMTTNHSFMCLIKYGHLRVNQTFNWNTTKQEHFP
light: DVVMTQSPLSLPVTPGEPASISCRSSQSLVHSNRNTYLHWYLQKPGQSPQLLIYKVSNRFSGVPDRFSGSGSGTDFTLKISRVEAEDVGVYYCSQNTHVPPTFGQGTKLEIKRTVAAPSVFIFPPSDEQLKSGTASVVCLLNNFYPREAKVQWKVDNALQSGNSQESVTEQDSKDSTYSLSSTLTLSKADYEKHKVYACEVTHQGLSSPVTKSFNRGEC
notes: IgG1 anti-GPC-3 antibody with the CD80 ECD on the heavy chain C-terminus; It uses the BY20.2 light chain
Kd (GPC-3 protein): 1.49 nM
koff (GPC-3 protein): 5.54e-05 s⁻¹
kon (GPC-3 protein): 37200 M⁻¹ s⁻¹

B5: conjugate BY24.22 (VEGFR-Fc-CD80, IgG4) (Fc fusion)
chain: ASDTGRPFVEMYSEIPEIIHMTEGRELVIPCRVTSPNITVTLKKFPLDTLIPDGKRIIWDSRKGFIISNATYKEIGLLTCEATVNGHLYKTNYLTHRQTNTIIDVVLSPSHGIELSVGEKLVLNCTARTELNVGIDFNWEYPSSKHQHKKLVNRDLKTQSGSEMKKFLSTLTIDGVTRSDQGLYTCAASSGLMTKKNSTFVRVHE[no letters for human IgG4 Fc with S228P (EU numbers)]GGGGSGGGGSGGGGSVIHVTKEVKEVATLSCGHNVSVEELAQTRIYWQKEKKMVLTMMSGDMNIWPEYKNRTIFDITNNLSIVILALRPSDEGTYECVVLKYEKDAFKREHLAEVTLSVKADFPTPSISDFEIPTSNIRRIICSTSGGFPEPHLSWLENGEELNAINTTVSQDPETELYAVSSKLDFNMTTNHSFMCLIKYGHLRVNQTFNWNTTKQEHFP
Kd (VEGF165): 0.00857 nM
koff (VEGF165): 2.99e-05 s⁻¹
kon (VEGF165): 3.49e+06 M⁻¹ s⁻¹

Now from value to binder:

EC50 (recombinant human PD-L1): 0.841 µg/mL
EC50 (recombinant human CTLA-4): 0.92 µg/mL
B3: fusion protein BY24.30 (Fc-hCD80, IgG4) (Fc fusion)
chain: [no letters for human IgG4 Fc with S228P (EU numbers)]GGGGSGGGGSGGGGSVIHVTKEVKEVATLSCGHNVSVEELAQTRIYWQKEKKMVLTMMSGDMNIWPEYKNRTIFDITNNLSIVILALRPSDEGTYECVVLKYEKDAFKREHLAEVTLSVKADFPTPSISDFEIPTSNIRRIICSTSGGFPEPHLSWLENGEELNAINTTVSQDPETELYAVSSKLDFNMTTNHSFMCLIKYGHLRVNQTFNWNTTKQEHFP
notes: CD80 ECD at the C-terminus of IgG4 Fc; also called Fc-hCD80 fusion protein; Fc-CD80

EC50 (recombinant human PD-L1): 5.3 µg/mL
EC50 (recombinant human CTLA-4): 5.25 µg/mL
B4: fusion protein BY24.23 (hCD80-Fc, IgG4) (Fc fusion)
chain: VIHVTKEVKEVATLSCGHNVSVEELAQTRIYWQKEKKMVLTMMSGDMNIWPEYKNRTIFDITNNLSIVILALRPSDEGTYECVVLKYEKDAFKREHLAEVTLSVKADFPTPSISDFEIPTSNIRRIICSTSGGFPEPHLSWLENGEELNAINTTVSQDPETELYAVSSKLDFNMTTNHSFMCLIKYGHLRVNQTFNWNTTKQEHFPD[no letters for human IgG4 Fc with S228P (EU numbers)]
notes: Control with the CD80 ECD at the N-terminus of IgG4 Fc; also called hCD80-Fc fusion protein

Each block holds one binder with its values, some of them ahead of it.
